The campaign covered roughly 360,000 compounds. About 25,000 (6.9%) were called active. Inconclusive means that the source gave no clear call. Such entries were picked first, then a sample of the others. Calls follow the shape of the dose curve; as a rule, active = well fitted inhibition curve with a large enough effect; inconclusive = small, poorly fitted or top-dose-only effect; inactive = flat fitted curve, though single readings scatter. Where the call is inconclusive, the potency comes from a doubtful curve fit.
molecular target: Luciferin 4-monooxygenase (Photinus pyralis) (UniProt P08659); assay: qHTS profiling assay for firefly luciferase inhibitor/activator using purifed enzyme and Km concentrations of substrates (counterscreen for miR-21 project); details: purified FLuc, luminescence inhibition; series mostly up to 57.5 µM; activity change, negative = inhibition: at the top concentration; also: nearly all actives have a fitted effect of over 55% in size;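 as to activity change, negative = inhibition: plate controls were vehicle for no effect and reference inhibitor for full effect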
How it was run: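 Purified P. pyralis luciferase (10nM final) with 10uM D-luciferin and 10uM ATP (Km levels) in 50mM Tris acetate pH 7.5, 10mM Mg acetate, 0.01% Tween-20, 0.05% BSA; qHTS 6-point titration, ~60 µM downward; luminescence read.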
Potency is read from the fitted curve at half-maximal effect; tags tell the direction and shape of the fitted curve.

Sequence of UniProt P08659 (P08659 whole entry, looked up): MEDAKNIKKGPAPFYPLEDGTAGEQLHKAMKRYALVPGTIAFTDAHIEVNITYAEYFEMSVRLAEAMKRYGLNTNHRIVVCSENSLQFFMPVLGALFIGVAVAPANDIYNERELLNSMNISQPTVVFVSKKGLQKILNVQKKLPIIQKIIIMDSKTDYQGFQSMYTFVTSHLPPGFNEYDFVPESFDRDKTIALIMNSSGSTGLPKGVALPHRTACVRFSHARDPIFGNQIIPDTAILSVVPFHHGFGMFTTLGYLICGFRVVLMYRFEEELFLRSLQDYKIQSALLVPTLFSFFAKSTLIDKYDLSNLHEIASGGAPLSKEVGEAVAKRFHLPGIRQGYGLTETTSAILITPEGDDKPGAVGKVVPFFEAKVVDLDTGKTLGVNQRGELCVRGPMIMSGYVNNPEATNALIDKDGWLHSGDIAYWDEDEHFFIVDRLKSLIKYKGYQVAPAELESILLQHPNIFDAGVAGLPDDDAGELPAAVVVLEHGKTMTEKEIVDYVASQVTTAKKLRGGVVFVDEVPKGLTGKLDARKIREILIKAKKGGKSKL

Compound	activity change, negative = inhibition	Potency
CCOc1ccc(CCNC(=O)c2c(C)oc3ncnc(N4CCOCC4)c23)cc1	inactive: 5.05%	
CCCc1nc2ccccc2c(=O)n1/N=C/c1c(C)[nH]n(-c2ccc(C)cc2)c1=O		inconclusive: 33.8 µM [inhibitor, single point]
CC(=O)Nc1ccc(NC(=O)CCc2nc3sc4c(c3c(=O)[nH]2)CCCC4)cc1		inconclusive: 9.53 µM [inhibitor, partial curve, poor fit]
Cc1ccc(NC(=O)CN2C(=O)COc3ccc(S(=O)(=O)N4CCCCCC4)cc32)cc1C		inconclusive: 16.9 µM [inhibitor, partial curve, poor fit]
Cc1noc2ncc(C(=O)c3cc(F)ccc3O)cc12	inactive: -0.547%	
COc1ccc(C(=O)Nc2ccc(OCc3cc(=O)n4ccccc4n3)cc2)cc1	inactive: -6.72%	
COc1ccc2[nH]cc(C(=O)CNc3nc(C)cs3)c2c1		inconclusive: 21.3 µM [inhibitor, partial curve, poor fit]
CCOc1ccc(C(=O)NCC(=O)OCC(=O)NC2CCCC2)cc1	inactive: -18.3%	
Clc1ccc(-c2cn3c(n2)CCC3)cc1		active: 12 µM
CC(C)(C)c1ccc(C(=O)Nc2cccnc2)cc1		active: 2.69 µM
CC(=O)Nc1cccc(C(=O)OCN2C(=O)c3ccccc3C2=O)c1	inactive: -1.02%	
COc1cccc(-n2c(=O)c3c(C)c(C(=O)N(C)C)sc3n(CC(=O)Nc3ccc(C)cc3Cl)c2=O)c1	inactive: -5.98%	
COc1ccc(/C=N/n2cncn2)cc1Cn1nc(C)c([N+](=O)[O-])c1C	inactive: 0.521%	
COC(=O)C(CC(=O)c1ccc(Cl)cc1)c1ccc(C)cc1 (stereo unspecified)		inconclusive: 26.9 µM [inhibitor, partial curve, poor fit]
O=C(NCCc1csc(-c2cccc(F)c2)n1)c1ccc(Br)o1		inconclusive: 26.9 µM [inhibitor, partial curve, poor fit]
CCn1c(SCC(=O)c2ccc(Cl)cc2)nnc1C(C)C		active: 19 µM
Cc1ccc(Cl)cc1NCc1nnc2n1CCCCC2	inactive: 1.32%	
COc1cc(/C=N/NC(=S)Nc2cccc(C(=O)O)c2)cc(OC)c1OC		active: 23.9 µM
COc1ccc(COc2cc(-c3cccc(OC)c3)nc3ccc(NC(=O)c4ccccc4)cc23)cc1	inactive: 2.58%	
CC(=O)c1c(NC(=O)c2ccccc2)[nH]c(-c2ccccc2)nc1=S		inconclusive: 21.3 µM [inhibitor, single point]
Cn1cc(CCNC(=O)c2ccc3nc(Cc4ccccc4F)oc3c2)cn1		active: 5.36 µM
CCOC(=O)CSc1ncc(-c2ccccc2)nn1		inconclusive: 23.9 µM [inhibitor, single point]
Cc1ccc(CSC2=NCCN2S(=O)(=O)c2ccc(F)cc2)cc1	inactive: -1.61%	
O=C(CCN1C(=O)c2ccc([N+](=O)[O-])cc2C1=O)Nc1ccccc1C(=O)O	inactive: -3.68%	

Compound	activity change, negative = inhibition	Potency
CC(=O)Oc1cccc(N2C(=O)C3C(C2=O)C2C=CC3C23CC3)c1 (stereo unspecified)	inactive: 2.75%	
O=C(O)Cc1sc(Nc2cccc3ccccc23)nc1-c1ccc(F)cc1		inconclusive: 26.9 µM [inhibitor, single point]
COc1cc(NC(=O)COC(=O)CO/N=C(\C)c2ccc3c(c2)OCO3)cc(OC)c1	inactive: -2.3%	
O=C(Nc1ccc(Cl)c(Cl)c1)Nc1ccon1		inconclusive: 23.9 µM [inhibitor, partial curve]
O=C(Cc1ccccc1F)NCC1(N2CCOCC2)CCCCC1	inactive: 3.98%	
Cc1ccc(N2C(=O)NC(C(F)(F)F)(C(F)(F)F)C3=C2CC(C)(C)CC3=O)cc1	inactive: 3.58%	
Cc1cc(C)c2nc(N3CCC(C(=O)NCCCN4CCCC4=O)CC3)sc2c1		inconclusive: 37.9 µM [inhibitor, single point]
Cc1ncoc1C(=O)N1CCc2c([nH]c3ccccc23)C1c1ccccc1F (stereo unspecified)	inactive: 0.181%	
Nc1nonc1C(=O)N/N=C/c1cc2c(cc1Br)OCO2		inconclusive: 26.9 µM [inhibitor, single point]
O=c1oc(-c2cccs2)nc2ccc(Cl)cc12		inconclusive: 8.49 µM [inhibitor, partial curve, poor fit]
O=C(NCCCN1CCCC1=O)c1cc(-c2ccc3c(c2)OCO3)nc2ccccc12		active: 23.9 µM
O=C(NC(=S)Nc1ccc(S(=O)(=O)N2CCCCC2)cc1)c1ccc(Cl)cc1	inactive: 9.99%	
COc1ccc(C(=O)NC(=S)Nc2ccccc2F)cc1		active: 2.69 µM
Cc1ccsc1C(=O)NNC(=O)C1CCCCC1C(=O)O (stereo unspecified)		inconclusive: 23.9 µM [inhibitor, single point]
Cc1nnc(NC(=O)c2ccc(C)c(S(=O)(=O)N3CCOCC3)c2)s1		inconclusive: 26.9 µM [inhibitor, partial curve, poor fit]
COc1ccc(C(=O)N2CCn3c2nc2ccccc23)cc1		inconclusive: 21.3 µM [inhibitor, partial curve, poor fit]
COC(=O)CCCNC(=O)c1ccc2oc(CCCc3ccccc3)nc2c1		inconclusive: 19 µM [inhibitor, single point]
O=C(CCS(=O)(=O)c1cc2c(cc1Cl)NC(=O)CO2)NCCc1ccc(Cl)cc1	inactive: 0.927%	
CSC1=NCCN1C(=O)c1cccs1		inconclusive: 21.3 µM [inhibitor, partial curve, poor fit]
Cc1ccc(NC(=O)Cn2c(CCC(=O)O)ccc2-c2ccc(Cl)cc2)cc1		inconclusive: 23.9 µM [inhibitor, partial curve, poor fit]
O=C(CC(=O)c1ccccc1O)c1cccc(F)c1		inconclusive: 26.9 µM [inhibitor, partial curve, poor fit]
CCCCOc1ccc(CN(CCO)CCO)cc1[N+](=O)[O-]		inconclusive: 26.9 µM [inhibitor, single point]
Cc1ccc(N=Cc2cc(Cc3ccccc3Cl)cc([N+](=O)[O-])c2O)c(O)c1		inconclusive: 23.9 µM [inhibitor, partial curve]
CCOc1cc(C2C(C#N)=C(N)OC3=C2C(=O)CC(C)(C)C3)cc([N+](=O)[O-])c1O (stereo unspecified)		inconclusive: 26.9 µM [inhibitor, partial curve, poor fit]

Compound	activity change, negative = inhibition	Potency
C=CCNc1nc(C(=O)OCC(=O)c2ccc(F)cc2)cs1		inconclusive: 1.2 µM [inhibitor, full curve, poor fit]
C(=N\n1cnnc1)/c1cccc(OCCOc2ccccc2)c1		inconclusive: 37.9 µM [inhibitor, partial curve, poor fit]
Cc1cc2ncc(-c3cccc(Cl)c3)cn2n1		inconclusive: 8.49 µM [inhibitor, partial curve, poor fit]
CCC(=O)Oc1cccc(C(=O)Nc2cccc(NC(=O)c3ccco3)c2)c1		inconclusive: 30.1 µM [inhibitor, single point]
Cc1ccc(C(=O)Nc2ccc(C(=O)OCc3cc(=O)n4ccsc4n3)cc2)cc1		inconclusive: 1.9 µM [inhibitor, partial curve, poor fit]
COc1ccc(NC(=O)C2=CC(c3ccc(OC)c(OC)c3)=NS(=O)(=O)N2C)cc1		inconclusive: 30.1 µM [inhibitor, partial curve, poor fit]
COc1ccc(-c2cnc(SCCNC(=O)c3ccc4c(c3)OCO4)[nH]2)cc1		inconclusive: 26.9 µM [inhibitor, partial curve, poor fit]
Cc1cccc(N(C(=O)CNC(=O)c2ccco2)C(C(=O)NC2CCCC2)c2ccncc2)c1C (stereo unspecified)	inactive: 1.35%	
CC1CCN(CC(=O)Nc2nc(-c3ccccc3)cs2)CC1		inconclusive: 37.9 µM [inhibitor, partial curve, poor fit]
Cc1ccc(NC(=O)Nc2ccno2)cc1		inconclusive: 19 µM [inhibitor, partial curve]
COc1ccc(N=Nc2ccc3ccccc3c2)c(O)c1		active: 0.379 µM
N#C/C(=C(/O)c1ccc([N+](=O)[O-])o1)c1nc2ccccc2[nH]1		inconclusive: 5.36 µM [inhibitor, partial curve]
CCc1ccc(CNc2ccc3c(c2)ncn3C)cc1		active: 9.53 µM
Cc1ccc(C(=O)NNC(=O)c2ccccc2-n2cccc2)cc1		inconclusive: 30.1 µM [inhibitor, partial curve, poor fit]
O=C(CCOc1ccccc1)Nc1ccnn1C1CCN(Cc2ccc(F)cc2)CC1	inactive: 2.46%	
CCOC(=O)c1nc(C)nc(Sc2n[nH]c(-c3ccc(C(C)(C)C)cc3)n2)c1C		inconclusive: 21.3 µM [inhibitor, single point]
O=c1[nH]c(-c2ccccc2)nc2sc(-c3ccccc3)cc12		inconclusive: 0.849 µM [inhibitor, partial curve, poor fit]
O=Cc1ccnc(-c2ccc(OC(=O)c3ccco3)cc2)n1		inconclusive: 26.9 µM [inhibitor, single point]
Cc1ccc(S(=O)(=O)NCCC(c2ccccc2)c2ccccc2)cc1C(=O)O		inconclusive: 21.3 µM [inhibitor, single point]
CC(=O)c1sc(NC(=O)c2ccc3c(c2)OCO3)nc1C		active: 4.78 µM
CCCOc1ccc(N2C(=O)CC(N(CCc3ccccc3)C(=O)c3ccccc3)C2=O)cc1 (stereo unspecified)		inconclusive: 0.0301 µM [inhibitor, partial curve, poor fit]
Cc1ccc2nc3c(c(Nc4ccc5c(c4)OCCO5)c2c1)CCC3	inactive: -2.01%	
Cc1cccc(OCC(=O)N(Cc2ccccc2)c2c(N)n(Cc3ccccc3)c(=O)[nH]c2=O)c1	inactive: -0.636%	
